These results are taken from the RNAGym collection of RNA variant scans (doi:10.1093/nar/gkz1192).

Read counts are not given, so values of variants with three or more changes are uncertain.

Sequences and labels used below:
B1: CPEB3 Ribozyme (parent)
chain: UAACAGGGGGCCACAGCAGAAGCGUUCACGUCGCAGCCCCUGUCAGAUUCUGGUGAAUCUGCGAAUUCUGCUGUAUAUCUC

The data set covers variants of B1. The experiment in a line: self-cleavage, relative activity (ratio to wild type); higher = more cleavage; in vitro, sequencing. The essentials:
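After error-prone PCR and barcoding, CPEB3 ribozyme mutant libraries were transcribed with T7 RNA polymerase at 37°C for 5 hours, then given 15 min with DNase I before an EDTA stop, and they cleaved during both steps. Reverse transcription with template switching preceded Illumina sequencing. Relative activity divides a variant's cleaved/total read fraction by the unmutated ribozyme's. At least 5 reads were required per variant, and three batches were averaged.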
Regarding A3G G6U U49A, the self-cleavage was 0.14.

As for A3G G7C A15G A21G A45G U72C A77U, the self-cleavage is 0.

A3G A5U G9A A28G U43C: the self-cleavage is 0.11.

For the variant A3G C23G G33A C38U U43C U76C, the self-cleavage was found to be 0.11.

As for A3G C27A A35G U67A, the self-cleavage is 0.39.

In the case of A3C U43C U72C, the self-cleavage was determined as 1.05.

With A3G A5U G9A A20G A28G, the self-cleavage is 0.5.

On to A3G A20G C32G C37U U43A U54C A64G, for which the self-cleavage stood at 0.07.

Turning to A3C A18C U26C, the self-cleavage amounted to 0.25.

Take A3C A5C U41C U58A U69C A75G: the self-cleavage came to 0.29.

In the case of A2U U31C U66A U69C, the self-cleavage turned out to be 0.2.

A3G A20G A35G U54A U60C A75G C79U: the self-cleavage was found to be 0.8.

Consider A3G A13G G42A G61C, for which the self-cleavage was determined as 0.1.

For the variant A2U G8A A64G U69A, the self-cleavage was determined as 0.13.

With A3G G7A A13U C29U U41G G63A U78C, the self-cleavage was determined as 0.05.

In the case of A2U U25C U31C, the self-cleavage was found to be 0.4.

For the variant A2U U41C U51A, the self-cleavage is 1.11.

A3G A18G G33A U51C A56G U69C: the self-cleavage is 0.13.

Turning to A3G C12A G22A, the self-cleavage was 0.4.

A2U U25C U80G: the self-cleavage turned out to be 0.36.

Turning to A3G C38U U67A U78A, the self-cleavage came to 0.47.

With A3G A13G A18U A35G U58C, the self-cleavage was determined as 0.08.

As to A3G A20G U51C U54C U76C, the self-cleavage was 0.76.

In the case of A3G A64U U67A U78C, the self-cleavage stood at 0.42.

As to A3G C34G A56G U69C G73A U74C U80C, the self-cleavage was 0.05.

Take A3G A15C A64G: the self-cleavage came to 0.65.

For the variant A3G A13G U58C U60A U66C, the self-cleavage is 0.27.

As to A3G A18U A21U A28G A57U U69A G70U, the self-cleavage was determined as 0.06.

A3G A13G U26C: the self-cleavage worked out at 0.31.

Regarding A3G A18G A47G U69C, the self-cleavage is 1.12.

With A3G G6A A18G A56G U66C, the self-cleavage came to 0.08.

Turning to A3C G6U G10A C23U C29A U41A, the self-cleavage stood at 0.06.

In the case of A3G C29G U51C, the self-cleavage amounted to 0.14.

For A3G A21G A57G A77U, the self-cleavage was determined as 0.27.

For the variant A3G C4U G7C U80C, the self-cleavage amounted to 0.99.

Consider A3G A15G U26A A45C U72C U74A, for which the self-cleavage came out at 0.88.

Take A3G A45G A57G U78C: the self-cleavage is 0.58.

For the variant A3G C4U A15G U26A U41A U51C, the self-cleavage turned out to be 0.4.

For the variant A3G A28G U48C U66C, the self-cleavage is 0.28.

A3G C39A U54A U72C: the self-cleavage worked out at 0.14.

As for A3G C11U A20G U43C U54A, the self-cleavage was determined as 0.09.

Consider A3G A20G U48C, for which the self-cleavage was determined as 0.56.

As to A3C C34U A35G U60G U74G, the self-cleavage came out at 0.07.

In the case of A3G A18G U48C, the self-cleavage amounted to 0.31.

In the case of A3G A15U A35G U54A, the self-cleavage was found to be 1.27.

In the case of A2U U67C U69G U76C A77U, the self-cleavage came out at 0.16.

In the case of A3G A13U A47U C50A, the self-cleavage turned out to be 0.37.

Turning to A3G A15C G24U U41A, the self-cleavage turned out to be 0.29.

Consider A3G C11A A45G A64G, for which the self-cleavage turned out to be 0.13.

For the variant A2U U25A U48G A56G U58A, the self-cleavage amounted to 0.26.

For the variant A3G A35U U76C, the self-cleavage stood at 0.72.

On to A3G A5G A35G, for which the self-cleavage stood at 1.25.

In the case of A3G A28U A35G, the self-cleavage came to 1.19.

As for A2U G8U A15U G30A U41C U51C A77G, the self-cleavage is 0.06.

For the variant A3G A18G A21G U72A, the self-cleavage was determined as 0.23.

For the variant A3G A5G G16A C40A U48C A56U, the self-cleavage worked out at 0.17.

A3G A35U C44U: the self-cleavage was 0.4.

Regarding A3G G7U A20G G53C A57G, the self-cleavage is 0.41.

On to A3G A21C U51G, for which the self-cleavage was found to be 0.16.

With A3G A28G C29G A47U A65G U72C, the self-cleavage came out at 0.23.

Consider A3G A18G G73A U80A, for which the self-cleavage worked out at 1.12.

With A3G A21G U69C, the self-cleavage stood at 0.15.

As for A2U U25C U58C U66C, the self-cleavage stood at 0.08.

As for A3G A18G A20G U26A U48C U80C, the self-cleavage came to 0.06.

Regarding A3G A13U A20G A35U U48C A57U U76A, the self-cleavage was 0.29.

Regarding A2U U26C A57G U66C, the self-cleavage came to 0.18.

Turning to A3G A28U U31C A35G C62U G70U, the self-cleavage was found to be 0.13.

In the case of A3G A13G G16A U41C A64G, the self-cleavage worked out at 0.1.

Consider A3G A56G U74C, for which the self-cleavage was 1.15.

A2U G7U G10A C17U G36U U72C: the self-cleavage is 0.15.

With A3C A13U A28G, the self-cleavage is 0.45.

On to A3C A15U U31C U41C A56G, for which the self-cleavage was 0.39.

Consider A3G A13U U54A, for which the self-cleavage worked out at 1.08.

Regarding A3G A13U C44U U54A, the self-cleavage amounted to 0.79.

Turning to A3G G6A A28U U31C, the self-cleavage came out at 0.22.

Consider A3G A20G U41C U43C U69A, for which the self-cleavage worked out at 0.28.

On to A3G C4U A65G U69C, for which the self-cleavage amounted to 0.57.

With A3G C38U A47G, the self-cleavage was found to be 0.88.

Take A3G C12U U26C C32U C71U U80G: the self-cleavage stood at 0.07.

With A3G A18G A28C A35U U48A, the self-cleavage was determined as 0.06.

For the variant A3G A35G C40A C71A, the self-cleavage turned out to be 0.06.

A2U U43C U78G: the self-cleavage was 0.81.

Regarding A3G A13G G30C, the self-cleavage worked out at 0.1.
